From US20160115241A1 (Amgen, published 2016)
Where two headings read alike, the source gives them in different places.

Key:
[1] = target: T1, human mesothelin (MSLN) (human, UniProt Q13421 296-598); assay: cell-based or functional assay
[2] = target: T2, human CD3 epsilon chain (CD3ε) (human, UniProt P07766); assay: FACS on isolated human T cells; FITC anti-human light chain secondary
T2 construct: also called CD3ε on human T cells; human CD3ε
Protocol: The heterodimeric bispecific antibodies described in Example 1 were produced in HEK 293 cells and were assayed by fluorescence activated cell sorting (FACS) for binding to T cells, which express CD3ε, and to a human ovarian cancer cell line, Ovcar-8, which expresses mesothelin. Briefly, the heterodimeric bispecific antibodies were incubated with about 50,000 Ovcar-8 cells or isolated human or cynomolgus monkey T cells at 4° C. for one hour. The cells were then washed and stained with a fluorescein isothiocyanate (FITC)-conjugated anti-human light chain secondary antibody and analyzed by flow cytometry. The relative binding was represented by the geometric mean of fluorescence intensity.

[3] = target: T1, human mesothelin (MSLN); assay: cell-based or functional assay; remark: listed apart in the source
T1 sequence (Q13421 other isoform, or with tags, fused parts or gaps limits assumed): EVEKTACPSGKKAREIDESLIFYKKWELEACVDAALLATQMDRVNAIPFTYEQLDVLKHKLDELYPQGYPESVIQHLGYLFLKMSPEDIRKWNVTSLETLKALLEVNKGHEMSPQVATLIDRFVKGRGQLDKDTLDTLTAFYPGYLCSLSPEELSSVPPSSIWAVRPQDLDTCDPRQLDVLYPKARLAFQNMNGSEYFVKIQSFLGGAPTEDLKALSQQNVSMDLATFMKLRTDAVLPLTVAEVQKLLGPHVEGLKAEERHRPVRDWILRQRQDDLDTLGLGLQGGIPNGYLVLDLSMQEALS

T2 sequence (P07766 22-207 limits assumed): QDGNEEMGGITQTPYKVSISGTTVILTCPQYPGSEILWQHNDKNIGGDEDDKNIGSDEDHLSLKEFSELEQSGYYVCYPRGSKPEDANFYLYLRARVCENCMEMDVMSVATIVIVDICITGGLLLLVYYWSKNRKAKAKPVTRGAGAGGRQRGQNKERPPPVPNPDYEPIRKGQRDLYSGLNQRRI

B1: […].5 (anti-MSLN/CD3ε heterodimeric bispecific antibody) (bispecific antibody)
chain 1: [no letters for about 120 residues]ASTKGPQVQLQESGPGLVKPSETLSLTCTVSGGSIISHYWSWIRQPPGKGLEWIGYIYYSGSTNYNPSLKSRVTISVDTSKNQFSLKLTSVTAADTAVYYCARDGWSAFDYWGQGTLVTVSSASTKGPSVFPLAPCSRSTSESTAALGCLVKDYFPEPVTVSWNSGALTSGVHTFPAVLQSSGLYSLSSVVTVPSSNFGTQTYTCNVDHKPSNTKVDKTVGGGGSAAAVPRDLEVVAATPTSLLISWDAPHHGVAYYRITYGETGGNSPVQEFTVPGSKSTATISGLKPGVDYTINVYAVLAYPRGYPLSKPISINYRTDYKDDDDKGSSHHHHHH
chain 2: not shown
notes: second chain: two variable regions, CL
Human TDCC EC50 (pM), Ovcar-8 target cells with human T cells [1]: 0.12 pM | FACS binding (geometric mean) [2]: 220 geometric mean of fluorescence intensity | Human TDCC EC50 (pM), Ovcar-8 target cells with human T cells [3]: 0.12 pM
